Data from PubChem BioAssay AID624417 (National Center for Advancing Translational Sciences (NCATS), 2012).
Hit rate of the full screen: of about 410,000 compounds, about 6,400 (1.6%) were called active. The shares of active, inactive and inconclusive entries below differ from those in the screen. Calls follow the shape of the dose curve; as a rule, active = well fitted inhibition curve with a large enough effect; inconclusive = small, poorly fitted or top-dose-only effect; inactive = no such curve, though single readings can be large or run the other way. Potencies beside an inconclusive call are fits to weak or partial responses and may not hold up.

molecular target: Glucagon-like peptide 1 receptor (Homo sapiens) (UniProt P43220); experiment: qHTS of GLP-1 Receptor Inverse Agonists (Inhibition Mode); conditions: HEK293 GLP-1R CRE-luciferase, luminescence, 24 h, GLP-1R form is constitutively active; series mostly up to 38.3 µM; also: nearly all actives have a fitted effect of over 55% in size
Outline: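 HEK293 cells stably co-expressing constitutively active GLP-1R and a cAMP-responsive luciferase reporter were seeded in DMEM with 10% Nu serum, given compounds after 12 h, and incubated 24 h at 37 deg C. Luminescence was then read.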
Potency is read from the fitted curve at half-maximal effect; tags tell the direction and shape of the fitted curve.

UniProt P43220, sequence (P43220 whole entry, looked up): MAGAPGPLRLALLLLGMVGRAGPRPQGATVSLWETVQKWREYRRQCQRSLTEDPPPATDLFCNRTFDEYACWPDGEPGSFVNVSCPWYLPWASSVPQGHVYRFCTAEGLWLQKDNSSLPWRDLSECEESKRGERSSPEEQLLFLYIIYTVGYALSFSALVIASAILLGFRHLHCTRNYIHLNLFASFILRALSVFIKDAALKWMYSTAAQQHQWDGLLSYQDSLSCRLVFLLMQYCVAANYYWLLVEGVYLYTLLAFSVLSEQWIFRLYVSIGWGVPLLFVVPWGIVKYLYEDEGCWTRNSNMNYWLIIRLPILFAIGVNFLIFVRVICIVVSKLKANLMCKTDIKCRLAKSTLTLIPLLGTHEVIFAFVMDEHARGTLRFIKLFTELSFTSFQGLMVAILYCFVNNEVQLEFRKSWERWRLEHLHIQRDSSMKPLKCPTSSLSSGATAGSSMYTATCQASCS

Potency, inactive:
O=C(CCN1CCN(CCO)CC1)Nc1ccc(OCc2ccccc2)cc1, COc1ccc(OC)c(NC(=O)NCc2ccc(F)cc2)c1, CSc1nc(Cl)cc(Nc2ccc(O)cc2)n1, CCOC(=O)c1nnn(-c2nonc2-n2cccc2)c1CCl, COc1ccc(C2CC2/C(=N/O)c2ccccc2)cc1 (configuration not stated), CC(C)c1ccc(OCC(=O)Nc2c(C(=O)c3ccc(F)cc3)oc3ccccc23)cc1, Cc1c(/C=N/Nc2ccc(F)cc2)c(O)n(C)c(=O)c1C#N, CCOc1ccccc1C(O)C1=CC(=O)c2ccccc2C1=O (configuration not stated), CN1CCCCc2c1nc1ccccc1c2N (tested in a mixture with another compound), Cc1ccc(S(=O)(=O)/C=C2\OCc3ccccc32)cc1, CC(C)(C)OC(=O)N1Cc2ccccc2C[C@H]1C(=O)O

Potency, active:
COc1ccccc1C(CNC(=O)CCNS(=O)(=O)c1ccc(Br)cc1)N1CCCC1 (configuration not stated) 10 µM, CC(=O)Oc1ccc(Cl)cc1CN(C(C)=O)C1CCCCC1 8.91 µM, CCN1CCN(c2cc(C(C)C)nc3c(-c4ccccc4)c(C)nn23)CC1 3.98 µM

Potency, inconclusive:
CCOC(=O)CSc1nnc2n(-c3ccccc3)c(=O)c3c4c(sc3n12)CC(C(C)(C)C)CC4 (configuration not stated) 28.2 µM [inhibitor, single point], CCSc1ccc([C@@H]2[C@@H]3C(=O)N(C)C(=O)[C@@H]3[C@]3(C(=O)OC)CCCCN23)cc1OC 22.4 µM [inhibitor, single point], CCOc1ccc(-c2nc(=S)[nH][nH]2)cc1 31.6 µM [inhibitor, single point], CCCCCn1c(C(Cc2ccccc2)NC(=O)COC)nc2ccccc21 (configuration not stated) 28.2 µM [inhibitor, single point], CCC(C)NC(=O)CSc1nnc(-c2ccncc2)n1-c1ccc(OC)cc1 (configuration not stated) 7.08 µM [inhibitor, partial curve, poor fit], Cn1nc(C(C)(C)C)cc1C(=O)N1CCCCC1c1cc(C(=O)Nc2ccccc2Cl)no1 (configuration not stated) 15.8 µM [inhibitor, partial curve, poor fit], O=C(C=Cc1ccco1)c1ccc2ccccc2c1 28.2 µM [inhibitor, single point], COc1ccc(NC(=O)CN(C)C(=O)c2cccc(-n3cccc3)c2)cc1 11.2 µM [inhibitor, partial curve, poor fit], Cc1ccc(C(=O)O/N=C(\N)Cc2cccc3ccccc23)cc1 31.6 µM [inhibitor, partial curve, poor fit], O=C1OCCN1C(=O)[C@H]1[C@H](c2ccc([N+](=O)[O-])cc2)C(c2cccc(Cl)c2)=NN1c1ccc(Br)cc1 10 µM [inhibitor, partial curve, poor fit], CCN(CC)CCCn1c2c(c(SCC(=O)Nc3ccc(F)c(F)c3)nc1=O)CCC2 10 µM [inhibitor, partial curve, poor fit], CCN1CC(CN(C)Cc2nc(-c3ccc(C(F)(F)F)cc3)oc2C)CC1=O (configuration not stated) 28.2 µM [inhibitor, single point], CC(C)CC(C)c1cc(N)nc2nc3ccccc3n12 (configuration not stated) 22.4 µM [inhibitor, single point], Cc1cccc(-n2cnc3c(sc4nc(N5CCOCC5)c5c(c43)CCCC5)c2=O)c1 28.2 µM [inhibitor, single point], O=C(Oc1cccc(C(=S)N2CCOCC2)c1)c1cc([N+](=O)[O-])cc([N+](=O)[O-])c1 0.316 µM [inhibitor, full curve, poor fit], O=C(COC(=O)Cc1c(Cl)cccc1Cl)NC1CCCC1 12.6 µM [inhibitor, partial curve, poor fit], Cc1ccc(Nc2c(-c3ccsc3)nc3c(C)cccn23)cc1 12.6 µM [inhibitor, single point], C/C=C(/C)C(=O)OC1c2c(ccc3ccc(=O)oc23)OC(C)(C)C1OC(C)=O (configuration not stated) 28.2 µM [inhibitor, single point], COc1ccc(S(=O)(=O)c2c(C(=O)c3ccc(C)c(C)c3)cnc3ccc(F)cc23)cc1 11.2 µM [inhibitor, single point], CCCCCCn1c(=O)n2n(c1=O)C[C@]1(OC(=O)NCc3ccco3)CN(S(=O)(=O)c3ccc(C)cc3)C[C@]1(O)C2 31.6 µM [inhibitor, single point], Cc1ccc(N2CCN(c3ncccc3[N+](=O)[O-])CC2)c(C)c1 10 µM [inhibitor, single point], CC(C)N=C1NN=C(c2ccc(Cl)c(Cl)c2)CS1 28.2 µM [inhibitor, partial curve, poor fit], O=C(NCCc1nc2ccccc2[nH]1)c1ccc(Cl)c([N+](=O)[O-])c1 2.24 µM [inhibitor, partial curve, poor fit], CC(C)c1ccc(/C=C/C(=O)NCCCc2ccccc2)cc1 11.2 µM [inhibitor, partial curve, poor fit], COc1ccc(NC(=O)c2nc(C)c(C3(C)CC(c4cccnc4)=NO3)s2)cc1 (configuration not stated) 1.58 µM [inhibitor, full curve, poor fit], CCN(CC)c1ccc(NC(=O)c2ccccc2)cc1S(=O)(=O)Nc1ccccc1OC 8.91 µM [inhibitor, partial curve, poor fit], O=C(CCc1c[nH]c2ccccc12)N1CCN(S(=O)(=O)c2ccc(F)cc2)CC1 8.91 µM [inhibitor, partial curve], Cc1ccc2sc(N3CCN(CCNC(=O)c4ccco4)CC3)nc2c1C 10 µM [inhibitor, partial curve, poor fit], O=C(C1CCCN1S(=O)(=O)c1ccc(Cl)cc1)N1CCN(c2ccccc2)CC1 (configuration not stated) 11.2 µM [inhibitor, single point], CC(C)C[C@H]1CNC(=S)N1CC1CCN(CCCCc2ccccc2)CC1 11.2 µM [inhibitor, partial curve, poor fit], CCN(CC)CCN(C(=O)c1ccc(C(C)=O)cc1)c1nc2ccc(Cl)cc2s1 11.2 µM [inhibitor, single point], CC(NC(=O)c1cc(COc2cccc(C(F)(F)F)c2)on1)c1nccs1 (configuration not stated) 14.1 µM [inhibitor, single point], C/C(=N/NC(=O)C1CC1(c1ccccc1)c1ccccc1)c1cccs1 (configuration not stated) 8.91 µM [inhibitor, partial curve, poor fit], O=S(=O)(Nc1cccc(C(F)(F)F)c1)c1ccc(-c2cnc(C3CC3)o2)cc1 3.55 µM [inhibitor, partial curve], NC(CCc1ccccc1)c1csc(Nc2ccc(C(F)(F)F)cn2)n1 (configuration not stated) 10 µM [inhibitor, partial curve], CCc1ccc(NS(=O)(=O)c2cc(-c3cnc(C4CC4)o3)ccc2C)cc1 1 µM [inhibitor, full curve, poor fit], Cc1oc(-c2ccc(C(=O)NCCC(C)C)cc2)nc1CN1CCc2ccccc21 7.94 µM [inhibitor, partial curve], CCOc1ccccc1C(=O)OCC(=O)NCC1CCCCC1 35.5 µM [inhibitor, partial curve, poor fit], CCC1Oc2ccccc2N(CC(=O)NCCCN2CCN(c3ccc(OC)cc3)CC2)C1=O (configuration not stated) 20 µM [inhibitor, single point], O=C(CSc1nnc(-c2ccc(Cl)cc2)n1-c1ccccc1)N/N=C/c1ccccc1C(=O)O 28.2 µM [inhibitor, single point], CCc1ccccc1NC1=NCC(=O)N1Cc1ccc2c(c1)OCO2 22.4 µM [inhibitor, single point], COc1ccc(-c2ccnc(-c3ccc(O)cc3)n2)cc1 11.2 µM [inhibitor, partial curve], CC(C)(C)C(=O)Nc1nnc(COc2ccc(Cl)cc2)s1 15.8 µM [inhibitor, single point], CN(CCNC(=O)c1ccc(CS(=O)(=O)c2ccc(Br)cc2)o1)CCc1ccccc1 20 µM [inhibitor, single point], CCOc1ccc2[nH]c(C(=O)N/N=C/c3cccc(OC)c3OC)cc2c1 10 µM [inhibitor, partial curve, poor fit], CN(c1ccc(OCC(=O)Nc2nc(-c3ccccc3)cs2)cc1)S(=O)(=O)c1ccc(F)cc1 8.91 µM [inhibitor, partial curve], COc1ccccc1CNC(=O)CC(c1ccc(C)cc1)N1Cc2ccccc2C1=O (configuration not stated) 12.6 µM [inhibitor, single point], O=C(CSc1ccccc1)NC1CCCCCCC1 5.62 µM [inhibitor, full curve, poor fit]
